Laboratory results: the supplement of paper PMC9151546
Most values come without repeats; read them as rough.

Columns and labels:
CHO-K1 [1] = experiment: relative survival (nuclei to bead ratio vs DMSO control) (% of vehicle control); higher = more surviving cells
Method: (§1)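 Flow-cytometric in vitro micronucleus assay (Litron MicroFlow) in CHO-K1 cells in 96-well plates, 19 concentrations (4.5-200 µM, n=1 per concentration). Without S9, cells were exposed for 24 h and sampled at 48 h. With Aroclor 1254-induced rat liver S9, cells were exposed for 3-4 h and sampled at 27-28 h. Read-outs are %MN and %hypodiploid nuclei relative to nucleated events, and relative survival as the nuclei-to-bead ratio versus the 1% DMSO vehicle control (x100).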

CHO-K1 [2] = experiment: micronucleus frequency (% of nucleated events); higher = more micronuclei (genotoxic)
CHO-K1 [3] = experiment: hypodiploid nuclei frequency (% of nucleated events); higher = more hypodiploid events (aneugenic)
Method: as §1
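For hypodiploid nuclei frequency (% of nucleated events) in this document: hypodiploid nuclei gated on a flow cytometer with 488 nm excitation after SYTOX Green staining, cultures at 37 °C, positive controls vinblastine without S9 and cyclophosphamide with S9.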
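For micronucleus frequency (% of nucleated events) in this document: cells lysed with nuclei stained by SYTOX Green, then micronucleus-gated events counted against nucleated events by flow cytometry with 488 nm excitation.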
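For relative survival (nuclei to bead ratio vs DMSO control) in this document: Lysed-cell nuclei stained with SYTOX Green and counted against counting beads by flow cytometry at 488 nm excitation, with vinblastine (no S9) and cyclophosphamide (plus S9) as positive controls.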

COCCOCCO [Diethylene glycol monomethyl ether]
Settings | hypodiploid nuclei frequency, CHO-K1 [3] [%] | micronucleus frequency, CHO-K1 [2] [%] | relative survival, CHO-K1 [1]
concentration: 4.5 (µM), S9 metabolic activation: with S9, exposure time: 3-4 hours | 0.22 | 1.52 | 96.7
concentration: 4.5 (µM), S9 metabolic activation: without S9, exposure time: 24 hours | 1 | 2.12 | 99.3
concentration: 5.63 (µM), S9 metabolic activation: with S9, exposure time: 3-4 hours | 0.2 | 1.12 | 101
concentration: 5.63 (µM), S9 metabolic activation: without S9, exposure time: 24 hours | 0.42 | 2.02 | 109
concentration: 7.04 (µM), S9 metabolic activation: with S9, exposure time: 3-4 hours | 0.22 | 1.38 | 82.8
concentration: 7.04 (µM), S9 metabolic activation: without S9, exposure time: 24 hours | 0.86 | 2.26 | 136
concentration: 8.8 (µM), S9 metabolic activation: with S9, exposure time: 3-4 hours | 0.14 | 1.32 | 99.9
concentration: 8.8 (µM), S9 metabolic activation: without S9, exposure time: 24 hours | 0.6 | 2.4 | 106
concentration: 11 (µM), S9 metabolic activation: with S9, exposure time: 3-4 hours | 0.3 | 1.06 | 113
concentration: 11 (µM), S9 metabolic activation: without S9, exposure time: 24 hours | 0.58 | 2.26 | 126
concentration: 13.7 (µM), S9 metabolic activation: with S9, exposure time: 3-4 hours | 0.26 | 1.24 | 92.3
concentration: 13.7 (µM), S9 metabolic activation: without S9, exposure time: 24 hours | 0.78 | 2.06 | 111
concentration: 17.2 (µM), S9 metabolic activation: with S9, exposure time: 3-4 hours | 0.28 | 1.02 | 117
concentration: 17.2 (µM), S9 metabolic activation: without S9, exposure time: 24 hours | 0.54 | 1.86 | 118
concentration: 21.5 (µM), S9 metabolic activation: with S9, exposure time: 3-4 hours | 0.26 | 1.06 | 115
concentration: 21.5 (µM), S9 metabolic activation: without S9, exposure time: 24 hours | 0.7 | 2.64 | 104
concentration: 26.8 (µM), S9 metabolic activation: with S9, exposure time: 3-4 hours | 0.32 | 1.9 | 73.7
concentration: 26.8 (µM), S9 metabolic activation: without S9, exposure time: 24 hours | 1 | 1.7 | 93.1
concentration: 33.6 (µM), S9 metabolic activation: with S9, exposure time: 3-4 hours | 0.32 | 1.78 | 72
concentration: 33.6 (µM), S9 metabolic activation: without S9, exposure time: 24 hours | 0.84 | 1.98 | 106
concentration: 41.9 (µM), S9 metabolic activation: with S9, exposure time: 3-4 hours | 0.16 | 1.3 | 69
concentration: 41.9 (µM), S9 metabolic activation: without S9, exposure time: 24 hours | 0.76 | 1.46 | 100
concentration: 52.4 (µM), S9 metabolic activation: with S9, exposure time: 3-4 hours | 0.36 | 1.24 | 73
concentration: 52.4 (µM), S9 metabolic activation: without S9, exposure time: 24 hours | 0.66 | 1.74 | 94.7
concentration: 65.5 (µM), S9 metabolic activation: with S9, exposure time: 3-4 hours | 0.32 | 1.2 | 72.9
concentration: 65.5 (µM), S9 metabolic activation: without S9, exposure time: 24 hours | 0.98 | 1.52 | 96.3
concentration: 81.9 (µM), S9 metabolic activation: with S9, exposure time: 3-4 hours | 0.22 | 1.28 | 74.3
concentration: 81.9 (µM), S9 metabolic activation: without S9, exposure time: 24 hours | 1.06 | 2.1 | 116
concentration: 102 (µM), S9 metabolic activation: with S9, exposure time: 3-4 hours | 0.26 | 1.4 | 84.3
concentration: 102 (µM), S9 metabolic activation: without S9, exposure time: 24 hours | 0.74 | 1.52 | 109
concentration: 128 (µM), S9 metabolic activation: with S9, exposure time: 3-4 hours | 0.1 | 1.16 | 89.7
concentration: 128 (µM), S9 metabolic activation: without S9, exposure time: 24 hours | 1.28 | 2.54 | 99.7
concentration: 160 (µM), S9 metabolic activation: with S9, exposure time: 3-4 hours | 0.22 | 1.24 | 88.1
concentration: 160 (µM), S9 metabolic activation: without S9, exposure time: 24 hours | 1.14 | 2.28 | 116
concentration: 200 (µM), S9 metabolic activation: with S9, exposure time: 3-4 hours | 0.18 | 1.26 | 89.1
concentration: 200 (µM), S9 metabolic activation: without S9, exposure time: 24 hours | 1.26 | 2.46 | 87.6
